# Over roughly 33,000 sequences, “E-score (-0.5 to 0.5)” has its median near -0.032; the highest 2% begin near 0.36. The list shows a part of the results.
# Biological target: T1, Sko1 (UniProt Q02100)
# T1 sequence: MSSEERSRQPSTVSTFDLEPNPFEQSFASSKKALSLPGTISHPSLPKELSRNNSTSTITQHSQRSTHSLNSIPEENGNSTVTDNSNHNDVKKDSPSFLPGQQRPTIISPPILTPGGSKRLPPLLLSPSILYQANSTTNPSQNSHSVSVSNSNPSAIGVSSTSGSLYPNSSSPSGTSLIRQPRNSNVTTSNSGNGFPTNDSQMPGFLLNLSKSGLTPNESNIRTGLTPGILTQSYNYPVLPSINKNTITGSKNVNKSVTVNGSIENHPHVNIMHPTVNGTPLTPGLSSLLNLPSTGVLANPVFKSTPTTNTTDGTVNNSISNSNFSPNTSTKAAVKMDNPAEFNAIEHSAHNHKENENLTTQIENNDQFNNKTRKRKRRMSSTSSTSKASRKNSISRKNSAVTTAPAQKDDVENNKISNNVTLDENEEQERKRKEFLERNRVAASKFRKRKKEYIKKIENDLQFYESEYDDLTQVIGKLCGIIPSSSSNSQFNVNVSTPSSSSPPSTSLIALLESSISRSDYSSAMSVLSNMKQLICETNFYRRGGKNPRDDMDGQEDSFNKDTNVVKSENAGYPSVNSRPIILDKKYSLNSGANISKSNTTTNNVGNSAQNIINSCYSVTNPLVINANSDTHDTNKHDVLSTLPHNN
# Assay: PBM E-score (8-mer binding enrichment) (E-score (-0.5 to 0.5)); higher = stronger / more preferred TF binding; most listed sequences are background and not binding sites
# Details: protein concentration: 200 nM; construct: GST-full length
# How it was run: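 For each ungapped eight-base word taken together with its reverse complement, the Universal PBM Analysis Suite assigned an E-score. Binding data came from GST-tagged yeast transcription factors, applied at about 100-200 nM, on universal all-10-mer Agilent arrays made double-stranded by primer extension. Fluorescent anti-GST marked bound protein, and scans were normalised with masliner.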
row,Sequence,PBM E-score
1,GACGTCCC,0.217
2,AGGTCGGA,-0.0835
3,CATGTATC,0.171
4,GCCCTTCA,-0.126
5,TGCTTAAA,0.0693
6,TAAACCAA,0.159
7,ATTTACTC,0.091
8,AGCGTAAT,0.366
9,CGGCTGCC,-0.279
10,TCCAGTCA,-0.0884
11,GATTTAGC,-0.0714
12,AGGATGTG,-0.206
13,ACGGGCCG,-0.232
14,ATAGACAT,-0.0372
15,CTTCGGCC,-0.0373
16,GCATGACA,0.214
17,GGAGACCC,-0.312
18,GATTGCCA,-0.162
19,CTGCGTTA,0.0283
20,AACCAAAT,0.0129
21,ATCCACAG,-0.132
22,ATTATGAG,0.18
23,AGTCTTCA,-0.118
24,AGTAGGGG,-0.195

row,Sequence,PBM E-score
1,AACGAGGC,-0.106
2,AAAGTTGT,0.135
3,GAGCAACC,-0.0456
4,GGCTGTGA,-0.2
5,CGAACGGC,-0.171
6,ATTAGACG,0.191
7,ATTGAATA,0.271
8,GGACACAC,-0.0616
9,CACTAGGG,-0.289
10,AGTACAAC,-0.135
11,ACTCAGGG,-0.303
12,CGAGCGCG,0.00482
13,CCTAGTTC,-0.0891
14,CAATGCGG,-0.198
15,AAGTATAG,-0.089
16,AGCTACCT,-0.0397
17,TCTGGGAA,-0.00346
18,TATTTTCA,0.145
19,ACTCGTCG,0.0478
20,AATCGACA,0.151
21,ATTGCGAG,-0.0027
22,GCCACCAA,-0.0477
23,CACACCAA,0.148
24,ATGTCATA,0.41

row,Sequence,PBM E-score
1,CTGCTCCA,-0.14
2,AGCTTTTG,-0.0101
3,TCGTCGAA,0.118
4,GTTCTAGA,-0.0486
5,GAGTCTTA,-0.109
6,GGTCTCCA,-0.19
7,CCTTGACG,0.275
8,AATTACGA,0.411
9,AGCCGCGC,-0.168
10,AGAGCGTG,-0.192
11,CCATGACC,-0.0889
12,CTTATCTA,0.186
13,ATGCGAAA,0.128
14,CACAAGGG,-0.341
15,AGGTGGCC,-0.218
16,AGTGGGAC,-0.111
17,ATAAGTAG,-0.00432
18,ACACAGGT,-0.14
19,AATGAAGA,0.118
20,CCTTCCAG,-0.214
21,GGCCCGCA,-0.221
22,AGATGCCA,-0.0921
23,AGAGGTAA,0.00195
24,GATCCGAA,-0.153

row,Sequence,PBM E-score
1,TATGATCA,0.259
2,ATGGAACA,-0.169
3,AGGGAAAC,-0.0869
4,CGTTAAAC,0.198
5,CACTAAAA,0.0614
6,CCCTTAGC,-0.281
7,AGGATCTA,-0.208
8,GGAAAAGA,-0.0129
9,ATTACGGA,0.287
10,GGCCGCAC,-0.311
11,AATCCCGT,0.146
12,GATGTAAA,0.177
13,TCGTAACA,0.275
14,GCCGCGCA,-0.219
15,ACTCAGGA,-0.0343
16,AAAACGTG,0.304
17,AAGATCGG,-0.235
18,GCGGTAAC,-0.122
19,CTCCTTGC,-0.141
20,GGCCGAAA,0.00137
21,AACGAAGA,0.0654
22,AAACGGTC,-0.0837

# From the supplement of paper PMC3334620
